Laboratory results published in PubChem BioAssay AID602310 (National Center for Advancing Translational Sciences (NCATS), 2012).
Values joined by “and” are separate entries in the source; they are usually repeats but may differ in a detail not shown here. Identical values can stand only once. In all, about 410,000 compounds went through this assay and about 310 (0.076%) were called active. Inconclusive means that the source gave no clear call. Such entries were picked first, then a sample of the others. The call rests on the fitted dose curve; in most records, active means well fitted curve in the direction sought with a large enough effect; inconclusive means small, poorly fitted or top-dose-only effect; inactive means flat fitted curve, though single readings scatter. Where the call is inconclusive, the potency comes from a doubtful curve fit.

molecular target: DNA dC->dU-editing enzyme APOBEC-3G (Homo sapiens) (UniProt Q9HC16); assay: qHTS for Inhibitors of Vif-A3G Interactions: qHTS; details: HeLa A3G-eYFP + Vif (tagged APOBEC3G with the HIV-1 protein that degrades it), YFP fluorescence, overnight; series mostly up to 46.1 µM; further: nearly all actives have a fitted effect of over 60% in size
UniProt Q9HC16, sequence (Q9HC16 whole entry, looked up): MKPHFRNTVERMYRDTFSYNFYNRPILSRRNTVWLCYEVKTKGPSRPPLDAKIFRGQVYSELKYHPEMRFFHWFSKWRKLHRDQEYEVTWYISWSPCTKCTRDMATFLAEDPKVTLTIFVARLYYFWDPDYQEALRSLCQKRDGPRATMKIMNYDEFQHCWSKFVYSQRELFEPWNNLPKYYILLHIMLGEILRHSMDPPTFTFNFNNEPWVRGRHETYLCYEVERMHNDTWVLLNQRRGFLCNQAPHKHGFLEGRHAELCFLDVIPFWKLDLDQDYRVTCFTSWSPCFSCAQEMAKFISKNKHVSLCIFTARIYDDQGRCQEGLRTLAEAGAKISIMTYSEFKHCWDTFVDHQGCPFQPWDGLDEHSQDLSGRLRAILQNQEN
Outline: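 Read-out is eYFP fluorescence (Ex 488/Em 500-530) from Vif-expressing HeLa A3G-eYFP cells; more signal means A3G escaped Vif-mediated degradation. Cells plated overnight, compound pinned in, incubated overnight at 37 deg C.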
Potency means the concentration at half of the fitted maximal effect; tags describe the fitted curve by direction and shape.

SMILES | Potency
COc1ccccc1N1CCN(C(=O)c2c(-c3ccccc3)noc2C)CC1 | inconclusive: 3.55 µM [inhibitor, full curve]
O=C(N/N=C\c1cccc(Cl)c1)c1n[nH]c2c1CCCC2 | inconclusive: 10 µM [inhibitor, partial curve]
Cc1cc(/C=C2\SC(=S)N(Cc3ccco3)C2=O)c(C)n1-c1ccccc1 | inconclusive: 28.2 µM [inhibitor, single point]
Cc1ccc(OCCOC(=O)c2c(-c3ccccc3)noc2C)cc1 | inconclusive: 17.8 µM [inhibitor, single point]
NC(=O)CC(NC(=O)Cc1cccc2ccccc12)c1ccc(NCc2cc(F)ccc2F)c([N+](=O)[O-])c1 (configuration not stated) | inconclusive: 17.8 µM [inhibitor, single point]
COc1cccc(OCC(O)CN(CCO)Cc2ccccc2)c1 (configuration not stated) | inactive
Cc1ccc2cc(CN(CC3CCCO3)C(=S)Nc3ccccc3)c(=O)[nH]c2c1C (configuration not stated) | inconclusive: 2 µM [inhibitor, partial curve, poor fit]
N#C/C(=C\c1ccc(N2CCCCC2)o1)C(N)=O | inconclusive: 15.8 µM [inhibitor, partial curve, poor fit]
COc1ccc(C)cc1Nc1c2c(nc3ccccc13)CCC2 | inconclusive: 1.78 µM [inhibitor, partial curve, poor fit] and inconclusive: 631 nM [inhibitor, full curve, poor fit]
Cc1c(C(=O)c2ccccc2)c2ccccn2c1CCc1ccccn1 | inactive
CCOc1cc(/C=C2\CN(C)C/C(=C\c3ccc(O)c(OCC)c3)C2=O)ccc1O | inconclusive: 3.16 µM [inhibitor, full curve, poor fit]
CC(NCc1cccs1)C(=O)NC1CCCCC1 (configuration not stated) | inactive
CC1=C(C(=O)c2ccccc2)C(c2ccc(OC(F)F)cc2)NC(=S)N1 (configuration not stated) | inconclusive: 28.2 µM [inhibitor, single point]
CCCN1C/C(=C/c2cccc([N+](=O)[O-])c2)C(=O)/C(=C/c2cccc([N+](=O)[O-])c2)C1 | inconclusive: 35.5 µM [inhibitor, partial curve, poor fit]
COc1ccc(NC(=O)c2cc(=O)c3cc(C)cc(C)c3o2)cc1 | inconclusive: 5.62 µM [inhibitor, single point]
Cc1ccc(OCCOc2cccc(Br)c2)c([N+](=O)[O-])n1 | inactive
C/C(=N\NC(=S)Nc1ccc(F)cc1)C1CC1 | inconclusive: 25.1 µM [inhibitor, single point]
CC1=CC(=NOC(=O)/C=C/c2ccccc2)C=C(C)C1=O | inconclusive: 25.1 µM [inhibitor, single point]
COc1ccc(-c2cc(NC=O)c3ncc(-c4cccc(C(=O)N(C)C)c4)n3c2)c(OC)c1 | inconclusive: 15.8 µM [inhibitor, single point]
COc1ccc(S(=O)(=O)Nc2cc(Cl)ccc2OC)cc1 | inconclusive: 1.12 µM [inhibitor, full curve, poor fit]
CCCCCCCCCCCCCCCC[N+](C)(C)CC | inactive
COc1cc(C(=O)Nc2sc3c(c2C#N)CCCC3)c(Br)c(OC)c1OC | inconclusive: 0.562 µM [inhibitor, full curve, poor fit]
COc1cc(CN2CCN(c3cccc(Cl)c3)CC2)cc(OC)c1OC | inconclusive: 5.62 µM [inhibitor, full curve, poor fit]

SMILES | Potency
Cc1ccc(C(=O)N/N=C/c2ccc(-c3ccc(Br)cc3[N+](=O)[O-])o2)o1 | inconclusive: 15.8 µM [inhibitor, single point]
O=c1c(Cl)c(Cl)cnn1Cc1nnc(-c2ccccc2Br)o1 | inconclusive: 25.1 µM [inhibitor, single point]
CCc1nnc(NC(=O)CSc2nccn2Cc2ccccc2)s1 | inactive
NC(=O)c1ccsc1NC(=O)c1ccc([N+](=O)[O-])o1 | inconclusive: 17.8 µM [inhibitor, single point]
Cc1cc(OC(F)F)ccc1NC(=S)NC1CCCC1 | inactive
Cc1cc(C)cc(NC(=O)c2nnn(Cc3cccc(Br)c3)c2N)c1 | inconclusive: 11.2 µM [inhibitor, partial curve, poor fit]
COc1ccc(-c2cc(-c3nnc(COC(=O)c4ccc(O)cc4)o3)c3ccccc3n2)cc1OC | inactive
CCOc1ccc(CN2C(=O)c3ccccc3Sc3ccc(C(=O)NCc4ccc5c(c4)OCO5)cc32)cc1 | inconclusive: 17.8 µM [inhibitor, partial curve, poor fit]
O=c1cc(CCl)nc2scc(-c3ccccc3)n12 | inconclusive: 31.6 µM [inhibitor, single point]
O=C(Nc1ccccc1)c1nc[nH]c1C(=O)NCCNC(=O)c1[nH]cnc1C(=O)Nc1ccccc1 | inconclusive: 35.5 µM [inhibitor, single point]
CC1(C(=O)Nc2ccc3c(c2)OCO3)Cc2c(-c3ccc4c(c3)OCO4)ccnc2O1 (configuration not stated) | inconclusive: 1.41 µM [inhibitor, full curve, poor fit]
COc1ccc(Nc2nc(N)c(C(=O)c3ccc(OC)cc3)s2)cc1 | inconclusive: 1.12 µM [inhibitor, full curve, poor fit]
COc1ccccc1NC(=O)CSc1nnnn1-c1ccccc1OC | inactive
CCCCN(C)CC(O)Cn1cc(/C=C/C(=O)c2cccs2)c2ccccc21 (configuration not stated) | inconclusive: 31.6 µM [inhibitor, single point]
CC(=O)n1cc(C(C[N+](=O)[O-])SCCN)c2ccccc21 (configuration not stated) | inconclusive: 25.1 µM [inhibitor, single point]
O=C(Nc1nc(-c2ccccc2)cs1)c1ccc(Br)o1 | inconclusive: 35.5 µM [inhibitor, partial curve, poor fit]
COc1cc(C)c(C(C)C)cc1S(=O)(=O)n1cnc(C)c1 | inconclusive: 2 µM [inhibitor, full curve, poor fit]
Cc1cc(C([O-])=C(C(=S)Nc2ccc(F)cc2)[n+]2ccccc2)c(C)n1-c1ccc(F)cc1 | inactive
OCCCNC(=S)Nc1ccc(Nc2ccccc2)cc1 | inactive
Cc1cccc(C)c1NC(=O)Cn1cc(C(=O)C2CC2)c2ccccc21 | inactive
COc1ccc(CCNC(=O)C(=O)NCc2ccccc2)cc1OC | inconclusive: 22.4 µM [inhibitor, single point]
COC(=O)c1oc2ccc(Br)cc2c1NC(=O)CN1CCN(C)CC1 | inactive
O=C1NC(c2ccccc2)N=C2Oc3ccccc3C=C12 (configuration not stated) | inconclusive: 1.58 µM [inhibitor, full curve, poor fit]

SMILES | Potency
Cn1cccc1-c1cc2n(n1)CCC(=O)N2CCCC(=O)NCc1cccc(Cl)c1 | inactive
Cc1ccc2nc(-c3ccco3)c(Cc3cccc(Cl)c3)n2c1 | inconclusive: 22.4 µM [inhibitor, single point]
CCC(C)NC(=O)Cn1c(=O)n(-c2ccc(Cl)cc2)c(=O)c2c3c(sc21)CCCC3 (configuration not stated) | inactive
COc1ccc(NC(=O)c2ccc(NC(=O)CCS(=O)(=O)c3cccs3)cc2)cc1Cl | inactive
O=C(c1ccccc1)N(c1ccccc1)c1ccccc1O | inconclusive: 28.2 µM [inhibitor, single point]
CC(C)c1ccc(C2NC(=O)c3c(sc4c3CCN(C)C4)N2)cc1 (configuration not stated) | inactive
C[n+]1ccc(C(c2c[nH]c3ccccc23)c2cc[n+](C)c3ccccc23)c2ccccc21 | inconclusive: 25.1 µM [inhibitor, single point]
O=C(NCc1cccc(F)c1)c1cccc2c1C(=O)c1ccc(N3CCC(Cc4ccccc4)CC3)cc1S2(=O)=O | active: 11.2 µM
COc1ccc(C(=O)c2cc(OC)c(OC)c(OC)c2)cc1OC | inconclusive: 4.47 µM [inhibitor, full curve, poor fit]
COc1ccc(C(=O)NCC(=O)N/N=C/C(C)=C/c2ccco2)cc1OC | inconclusive: 22.4 µM [inhibitor, single point]
Cc1cccc(NC(=S)NC(=O)/C=C/c2ccco2)n1 | inconclusive: 35.5 µM [inhibitor, single point]
CCC(C)Sc1ccc(-c2nc3cc(C)ccn3c2NC2CCCCC2)cc1 (configuration not stated) | inconclusive: 15.8 µM [inhibitor, single point]
COc1cccc(-c2cc3nc(-c4ccccc4)cc(=O)n3[nH]2)c1 | inconclusive: 0.562 µM [inhibitor, full curve, poor fit]
COc1ccc(CN=Cc2[nH]c3ccc(Br)c(Cl)c3c2O)cc1 | inconclusive: 14.1 µM [inhibitor, partial curve, poor fit]
CCN1CCN(C2=CC3=CC(=C(C#N)C#N)CCC3CC2)CC1 (configuration not stated) | inactive
Nc1c(C(=O)N/N=C/c2ccc(F)cc2)oc2nc(-c3ccccc3)cc(-c3ccco3)c12 | inconclusive: 11.2 µM [inhibitor, partial curve, poor fit]
COc1ccc(C/C(C)=N\NC(=O)c2cn(C)c3ccccc23)cc1OC | inconclusive: 22.4 µM [inhibitor, single point]
O=C(CNC1CCCCC1)Nc1cccc(C(F)(F)F)c1 | inactive
CSC(=S)N/N=C(\C)c1ccc(Br)cc1 | inactive
COc1cccc(-c2cnc3c(NC=O)cc(-c4cc(C)c(O)c(C)c4)cn23)c1 | inconclusive: 1.41 µM [inhibitor, partial curve, poor fit]
C=CCN(CC=C)Cc1cc(=O)oc2ccc3ccccc3c12 | inconclusive: 2.24 µM [inhibitor, partial curve, poor fit]
